# Data published in the supplement of paper PMC10126150.
# Values marked as one replicate rest on one cluster of the flow cell; about a third of the high ones do not repeat.
# Tested on: ATP
# Test: switch fluorescence ratio, 500 uM ATP over buffer (Cy3 cluster intensity, sum of 5 cycles each) (fold (ratio)); higher = stronger signal-on switching upon ATP binding; sequences stand for … in TCGTCGGCAGCGTCAGATGTGTATAAGAGACAGTTTTTTTTTTTTTTTTTTTTTTTTT…TC
# Conditions: aptamer strand: ATP DNA aptamer (quencher-CACCTGGGGGAGTATTGCGGAGGAAGG + anchor), 100 nM annealed; ATP concentration: 500 uM; one replicate
# In short: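 Per cluster, summed Cy3 intensity from the target cycles was divided by that from the buffer cycles to give the fluorescence ratio, then averaged per switch-domain sequence. Clusters outside 100-1000 RFU were excluded. The Cy3-labelled switching-strand clusters, on a modified Illumina MiSeq flow-cell, were annealed to 100 nM quencher-labelled ATP aptamer and imaged in selection buffer, then after 15 min with 500 uM ATP at 22 °C, for five cycles with NaOH stripping and re-annealing between them.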
# 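Also: ATP exposure 15 min at 22 °C before imaging.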
row,Sequence,switch fluorescence ratio
1,CAAAAGGGTA,1.01
2,CAAAATCCAC,1.03
3,CAAACCCCGG,1.08
4,CAAACGTTGG,1.03
5,CAAACTTGCT,1.06
6,CAAAGAACAG,1
7,CAAAGAACCG,1.16
8,CAAAGAGAAG,0.986
9,CAAAGAGGGG,0.999
10,CAAAGCATCG,0.998
11,CAAAGCCGTT,1.09
12,CAAAGGCCGG,1.03
13,CAAAGGTCGT,1
14,CAAAGTAACA,1.02
15,CAAAGTACAG,1.18
16,CAAAGTACTC,1.32
17,CAAAGTGTGT,0.974
18,CAAATCACAA,0.973
19,CAAATCCGTA,0.975
20,CAAATGATGG,1
21,CAAATGTTAG,1.01
22,CAAATTAGA,0.979
23,CAAATTCCGG,0.978
24,CAACAACGGC,0.857
25,CAACAAGTTT,1.02
26,CAACAGACCT,1.36

row,Sequence,switch fluorescence ratio
1,CAACAGTCAT,0.976
2,CAACATATGA,1.02
3,CAACATTAC,1.45
4,CAACATTTAC,1.11
5,CAACCATGTG,1.24
6,CAACCTCCTG,1.03
7,CAACGAAAAC,1.28
8,CAACGCCCC,1.33
9,CAACGCGAAG,1.11
10,CAACGCGAAT,3.65
11,CAACGCGGTA,1.31
12,CAACGCTAAC,3.68
13,CAACGTGCAT,1.03
14,CAACGTGTAT,0.999
15,CAACTACCCA,1.04
16,CAACTCAAGA,1.08
17,CAACTCAATA,1.4
18,CAACTCCACT,1.16
19,CAACTCTTG,1
20,CAACTGCGCA,1.17
21,CAACTGCGGC,1.14
22,CAACTTGGTC,1.07
23,CAACTTTGCC,1.02
24,CAAGAAGGAT,0.978
25,CAAGACAGCG,0.986
26,CAAGAGGAAG,0.999

row,Sequence,switch fluorescence ratio
1,CAAGAGTCGT,0.973
2,CAAGAGTTG,1.01
3,CAAGAGTTGC,0.99
4,CAAGCAGC,1.05
5,CAAGCAGCAT,1.14
6,CAAGCCCCTT,1.01
7,CAAGCCGGTC,1.06
8,CAAGCTCAGA,1.03
9,CAAGGAGGTA,0.995
10,CAAGGCCCGA,1.06
11,CAAGGCGTCA,1
12,CAAGGCTTTT,1
13,CAAGGGCACA,1.09
14,CAAGGGGATG,0.974
15,CAAGGGTCG,0.968
16,CAAGGGTTTC,1.02
17,CAAGGTACGC,1.08
18,CAAGGTCGGA,0.962
19,CAAGTAACCA,1.13
20,CAAGTAAGGC,1.04
21,CAAGTAGGT,0.991
22,CAAGTATTTG,0.964
23,CAAGTCCATA,0.979
24,CAAGTCGGG,0.953
25,CAAGTCGTGT,1.01
26,CAAGTCTCGT,0.984

row,Sequence,switch fluorescence ratio
1,CAAGTTTTAA,0.962
2,CAATACTTGC,1.13
3,CAATAGAGGT,1
4,CAATAGAGT,0.959
5,CAATAGTGTA,0.974
6,CAATATTCAC,1.04
7,CAATATTGGG,0.981
8,CAATATTTAG,0.957
9,CAATCAGACG,1.08
10,CAATCCCAG,1.04
11,CAATCCGTAG,1.16
12,CAATCGCGCG,1.06
13,CAATCGCTGG,1.03
14,CAATCGGAAC,1
15,CAATCGGG,0.951
16,CAATCTTTAT,1.04
17,CAATGAAGGC,0.963
18,CAATGAATGG,1.09
19,CAATGAGGAG,0.97
20,CAATGAGTAC,1.22
21,CAATGATAAC,1.04
22,CAATGATATG,0.995
23,CAATGGCGAT,0.941
24,CAATGGTGCC,1
25,CAATGTCGCA,0.994
26,CAATTACGA,1.11

row,Sequence,switch fluorescence ratio
1,CAATTCAAAC,1.01
2,CAATTCTTGC,1.03
3,CAATTGCACC,1.04
4,CAATTGCATA,1.04
5,CAATTGGAAG,0.969
6,CAATTGGATT,1.03
7,CAATTGGTGG,0.915
8,CAATTGTTTC,0.963
9,CACAAACGTA,1.32
10,CACAAATCTG,0.972
11,CACAACAAGG,1.02
12,CACAACGCTG,1.01
13,CACAAGCGC,1.03
14,CACAATGTTC,1.07
15,CACAATTCT,1.08
16,CACACAATTG,1.03
17,CACACATTCC,1.99
18,CACACCGCAA,2.05
19,CACACGAAAG,1.03
20,CACACGACAA,1.31
21,CACAGACCAC,1.15
22,CACAGATCCA,1.05
23,CACAGGAATA,1.09
24,CACAGGCAAA,1.07
25,CACAGGTTCG,1.04
26,CACAGTGCT,1.01

row,Sequence,switch fluorescence ratio
1,CACAGTGGG,1.07
2,CACAGTTTC,0.984
3,CACATAAACC,1.08
4,CACATAAGGC,1.1
5,CACATATC,1.07
6,CACATATCT,1.1
7,CACATGAGAC,1.03
8,CACATGAGTG,0.971
9,CACATGATCT,1.05
10,CACATTCCTA,1.01
11,CACATTGCTA,0.994
12,CACATTTCCC,1.03
13,CACATTTGGT,1.02
14,CACCAAAATC,1.4
15,CACCAAGCTA,1.09
16,CACCAGAGGC,1.02
17,CACCATAACC,1.13
18,CACCATAAGT,1.03
19,CACCATGAAA,1.03
20,CACCCTCCGG,1.14
21,CACCGAAAGG,0.978
22,CACCGACGCC,2.33
23,CACCGCACTT,2.27
24,CACCGCGCAA,1.91
